# Hit rate of the full screen: of about 50,000 compounds, about 800 (1.6%) showed an effect of 50% or more. Some of the results follow.
# Target: Bcl-2-like protein 10 (Homo sapiens) (UniProt Q9HD36)
# Assay: TR3 peptide-Bcl-B binding displacers, biochemical primary FP assay, phenotype converters (AID 1240);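 also: 0% = Bcl-B with tracer peptide and DMSO and 100% = tracer peptide lacking Bcl-B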
# Details: GST-Bcl-B / FITC-TR3 peptide fluorescence polarization; stronger effect = higher value; compound at 3.75 mg/L
# UniProt Q9HD36, sequence (Q9HD36 whole entry, looked up): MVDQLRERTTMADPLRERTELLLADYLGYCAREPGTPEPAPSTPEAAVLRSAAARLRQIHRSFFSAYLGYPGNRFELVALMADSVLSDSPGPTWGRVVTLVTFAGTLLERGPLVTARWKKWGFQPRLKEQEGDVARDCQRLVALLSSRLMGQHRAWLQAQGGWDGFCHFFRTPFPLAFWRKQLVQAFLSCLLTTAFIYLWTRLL
row,Compound,displacement [%]
1,COc1ccc(OC)c(NC(=O)CN(c2ccc(C(C)C)cc2)S(=O)(=O)c2ccccc2)c1,1.7
2,O=[N+]([O-])c1cccc(Cl)c1C1NN=C(c2ccccc2)S1 (stereo unspecified),7
3,CC1(C)Cc2nc(NC(=S)Nc3ccccc3)c(C(=O)O)cc2CO1,-4.3
4,Cc1ccc(S(=O)(=O)NCC(c2ccccc2)N2CCOCC2)cc1 (stereo unspecified),-3.8
5,CCOC(=O)Cn1c(=N)n(Cc2ccc(C)cc2)c2ccccc21,-5.2
6,COc1ccc(NC(=O)C(=O)NCCCO)cc1Cl,12.1
7,COc1ccc(/C=C2\C(=O)NC(=O)N(c3ccc(C)c(C)c3)C2=O)cc1Br,-8.9
8,O=C(c1ccc(-c2ccccc2)cc1)N1CCN(C2CCCC2)CC1,-7.8
9,CCOC(=O)C1=C(C)N=c2s/c(=C\c3ccc(Cl)cc3)c(=O)n2C1c1ccc2c(c1)OCO2 (stereo unspecified),121
10,CCCN1CCC(=NNC(=O)c2ccccc2O)CC1,7.1
11,COc1ccc(OC)c(/C=N\NC(=O)COc2ccc(Cl)cc2Br)c1,9.5
12,Cc1cc(NC(=O)c2ccc3ccccc3c2)ccc1NC(=O)c1ccccc1,-10.3
13,O=S(=O)(c1ccc2ccccc2c1)N1CCc2ccccc2C1,-1.3
14,CC1=CC(C)C2C(=O)N(Cc3ccc[n+](C)c3)C(=O)C2C1 (stereo unspecified),-14.6
15,COc1ccc(C(=O)N2CCN(c3ccccc3)CC2)cc1OC,-5.3
16,NC(=O)c1ccccc1NC(=O)c1ccc2c(c1)OCO2,5.1
17,CCN(CC)c1ccc(/C=C2\C(=O)NC(=O)N(c3cccc(C)c3)C2=O)c(OC)c1,15.2
18,Cc1occc1C(=O)Nc1nc2ccc(S(C)(=O)=O)cc2s1,-1.3
19,O=C(NCCOC(=O)c1ccc(S(=O)(=O)N2CCOCC2)cc1)c1cccnc1,10.3
20,CCc1ccccc1NC(=O)CN(c1ccc(OC)cc1OC)S(C)(=O)=O,2
21,N#Cc1cc2c(nc1SCc1ccc(Br)cc1)CCCC2,-4.4
22,COc1ccccc1Cc1noc(-c2ccc(F)cc2)n1,-7.7
23,CCOc1ccc(N2Cc3ccc(C(=O)NN)cc3C2)cc1,-27.8
24,Cc1ccc(C(=O)Nc2cccc(O)c2)o1,-10.7

row,Compound,displacement [%]
1,CC12CN3CC(C)(CN(C1)C3(C)c1ccccc1)C2=O (stereo unspecified),-9.1
2,CCC1C(=O)N(c2nc(-c3ccc(I)cc3)cs2)N=C1C (stereo unspecified),-16.9
3,COc1ccc(/C=N/n2c(C)nnc2C)c(OC)c1,-6
4,CC(C)(C)N=C1c2nn(Cc3ccccc3)nc2C(=NC(C)(C)C)c2nn(Cc3ccccc3)nc21,1.4
5,Cc1cc(C)nc(N/N=C/c2ccc(N3CCOCC3)cc2)n1,-23.9
6,COc1ccc(-c2cc(C(=O)N3CCC(Cc4ccccc4)CC3)c3ccccc3n2)c(OC)c1,-62.7
7,COc1ccc(NC(=O)/C=C/c2cccc([N+](=O)[O-])c2)cc1,-2.4
8,C=CCc1ccccc1OCCOc1ccc(/C=c2\sc3nc4ccccc4n3c2=O)cc1OCC,100
9,O=c1oc(-c2ccccc2[N+](=O)[O-])nc2ccccc12,3.8
10,CN(C)c1ccc(C2Nc3ccccc3NC3=C2C(=O)CC(c2ccccc2)C3)cc1 (stereo unspecified),2.9
11,C=CCN(CC=C)C(=O)c1cc(-c2ccc(C)s2)nc2ccccc12,-7.2
12,O=C(O)c1ccccc1NC1=C(Cl)C(=O)N(c2cccc(Cl)c2)C1=O,18.5
13,O=C(c1sc2cc(F)ccc2c1Cl)N1CCc2ccccc2C1,1
14,Oc1cccc(C=Nc2cccc(C(F)(F)F)c2)c1,0.7
15,CCC(Oc1ccccc1)C(=O)Nc1c(F)c(F)c(F)c(F)c1F (stereo unspecified),-2.2
16,COC(=O)C1=C(C)NC(C)=C(C(=O)OC)C1c1cn(-c2ccccc2)nc1-c1ccc(OC)c(Cl)c1,10.8
17,Cc1ccc(S(=O)(=O)NC(C)(C)C(=O)O)cc1,7.8
18,CCCC1(O)CC(c2cc(OC)ccc2OC)NC(c2cc(OC)ccc2OC)C1C (stereo unspecified),9.7
19,CC1(C)CC(=O)C2=C(C1)c1c(ccc3ccccc13)NC2c1ccccc1F (stereo unspecified),-1.5
20,O=C1C(Nc2cccc(Br)c2)=C(N2CCCCC2)C(=O)c2ccccc21,16.5
21,COc1sc(SC)cc1/C=N/NC(=O)C(NC(=O)c1ccccc1)c1n[nH]c(=O)c2ccccc12 (stereo unspecified),-7.7
22,COc1cc(C(=O)N2CCN(c3cccc(Cl)c3)CC2)c([N+](=O)[O-])cc1OC,15.2
23,CC(=O)Nc1ccc(Sc2ccccc2[N+](=O)[O-])cc1C,-18.2
24,O=[N+]([O-])c1ccc(N2CCOCC2)cc1NCCCN1CCOCC1,-14.2

row,Compound,displacement [%]
1,CCOc1cc(/C=N/NC(=O)CSc2nnc(-c3ccccc3)n2-c2ccccc2)ccc1O,-1.7
2,CC(=O)CC(=O)NC(C)c1ccccc1 (stereo unspecified),10.1
3,Cc1cc(=O)[nH]c(SCCc2ccccc2)n1,11.6
4,COc1ccccc1NC(=O)c1ccccc1N(Cc1ccccc1)S(=O)(=O)c1ccccc1,0.6
5,CCOC(=O)c1ccc(NC(=O)CN(c2cc(OC)ccc2OC)S(C)(=O)=O)cc1,5.5
6,O=C1NN(c2cccc(Cl)c2)C(=O)/C1=C\c1ccccc1O,-6.5
7,Cc1ccc(C(=O)Nc2ccc(N3CCOCC3)c(Cl)c2)cc1C,7.1
8,O=C(NC(NC(=S)Nc1ccccc1I)C(Cl)(Cl)Cl)c1ccccc1F (stereo unspecified),14.2
9,O=C(COC(=O)c1ccccc1C(F)(F)F)c1ccc(Cl)cc1,-11.5
10,CCOC(=O)Cc1nnc2c(NC(C)C)nc3nonc3n12,2.3
11,CCCSC1=C(C#N)C(c2ccc(F)cc2)CC(=O)N1 (stereo unspecified),3.2
12,CN1C(=O)C(=Cc2c(Cl)cccc2Cl)C(=O)N(C)C1=O,12.4
13,Cc1cccc(NC(=O)C(=O)NNC(=O)c2ccccc2C)c1,-11.5
14,Cc1cc(C=NNC(=O)CC#N)c(C)n1-c1ccc(Cl)c(Cl)c1,-16.6
15,C=CCSc1nc2ccccc2c(=O)[nH]1,16.8
16,COc1ccc(CCNC(=O)COc2ccc(C)cc2Br)cc1,-9.2
17,O=C1CSC(c2ccc3c(c2)OCO3)N1 (stereo unspecified),-8.5
18,C/C(=N\NS(=O)(=O)c1ccc(C)cc1)c1cc2ccccc2oc1=O,6.4
19,COc1ccc2c(C)cc(=O)oc2c1I,-14.5
20,CC(=O)NS(=O)(=O)c1ccc(N/C(N)=N\c2nc(C)cc(C)n2)cc1,5.6
21,Cc1ccsc1/C=N/OC(=O)c1nn(C)cc1Br,-8.1
22,COc1ccc(N/C(=N/S(=O)(=O)c2ccccc2)c2ccccc2)cc1,10.6
23,Cc1ccc(N2C(=O)/C(=C/N3CCOCC3)c3ccccc3C2=O)cc1,3.2

# Source: PubChem BioAssay AID1240 (Sanford-Burnham Center for Chemical Genomics, 2008)
